Measurements taken from PubChem BioAssay AID504832 (National Center for Advancing Translational Sciences (NCATS), 2011).
In all, about 310,000 compounds went through this assay and about 18,000 (5.8%) were called active. The shares of active, inactive and inconclusive entries below differ from those in the screen. Calls follow the shape of the dose curve; as a rule, active = well fitted inhibition curve with a large enough effect; inconclusive = small, poorly fitted or top-dose-only effect, or another doubt; inactive = no such curve, though single readings can be large or run the other way. No potency is given beside an inconclusive call; the fits are too rough.

assay: Primary qHTS for delayed death inhibitors of the malarial parasite plastid, 48 hour incubation; details: P. falciparum luciferase growth in erythrocytes; series mostly up to 28.7 µM
Method in brief: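 Erythrocytes infected with P. falciparum carrying an integrated firefly luciferase reporter (2% hematocrit, 0.1% parasitemia final) were exposed to compounds in RPMI 1640 with 0.5% Albumax at 37 C, 5% CO2. Growth inhibition was scored as reduced luminescence.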
Potency is read from the fitted curve at half-maximal effect; tags tell the direction and shape of the fitted curve.

Row | SMILES | Potency
1 | C[C@H](NC(=O)Cc1ccccc1)C(=O)N1CCC2(CC1)NCCc1[nH]cnc12 | inactive
2 | Cc1cc(Nc2ccc(Cl)cc2)n(-c2cccc(Cl)c2)n1 | inconclusive [inhibitor, single point]
3 | CC(=O)Nc1cccc(C(=O)OCc2csc(CC(=O)Nc3ccccc3C)n2)c1 | active: 9.28 µM
4 | COc1ccccc1-c1nnc(SCC(=O)Nc2nc(-c3ccccc3)cs2)n1C | inconclusive [inhibitor, full curve, poor fit]
5 | COCc1cc(C)nc2sc(C(=O)NC3CCCCC3)c(N)c12 | inconclusive [inhibitor, single point]
6 | Cc1ccc2c(c1)N(C(=O)CCC(=O)N1CCN(c3ccccn3)CC1)CCO2 | inconclusive [inhibitor, partial curve, poor fit]
7 | CC1(C)C2CCC1(C)C(OC(=O)C[n+]1ccccc1)C2 (stereo not given) | inconclusive [inhibitor, single point]
8 | O=C(COC(=O)c1cc(-c2ccccc2)nc2ccccc12)Nc1ccc2c(c1)OCO2 | inactive
9 | CCCCNCCOCCOc1ccc(C)cc1[N+](=O)[O-] | inactive
10 | COc1cc2ccc(=O)oc2c(CC=C(C)C)c1OC | inconclusive [inhibitor, partial curve, poor fit]
11 | CCN(CC)c1cc(Cl)c2nonc2c1N | inconclusive [inhibitor, single point]
12 | Cc1cccc(N2CCN(C(=S)Nc3ccc4nc(N5CCN(C)CC5)cc(C)c4c3)CC2)c1C | active: 11.7 µM
13 | O=C(NCC1CCCO1)C(c1cccs1)N(C(=O)c1ccc(-c2ccccc2)[nH]1)C1CCCC1 (stereo not given) | active: 10.4 µM
14 | Cc1c(Cl)c([N+](=O)[O-])nn1CC(=O)NC(C)C1CC2CCC1C2 (stereo not given) | inactive
15 | Cc1cc(C)c(S(=O)(=O)N(C2=NCCS2)S(=O)(=O)c2c(C)cc(C)cc2C)c(C)c1 | active: 14.7 µM
16 | Cc1ccc(S(=O)(=O)N(Cc2n[nH]c(=S)n2-c2ccccc2)c2ccccc2)cc1 | active: 2.33 µM
17 | COc1cccc(/C=C2\SC(=S)N(CC3CCCO3)C2=O)c1 (stereo not given) | inactive
18 | COc1ccc(-c2nn(-c3ccccc3)cc2C(=O)OCC(=O)c2ccc(C)c([N+](=O)[O-])c2)cc1 | active: 10.4 µM
19 | CS(=O)(=O)N(CC(=O)NCCSCc1cccc(Cl)c1)c1ccc2c(c1)OCO2 | inconclusive [inhibitor, partial curve, poor fit]
20 | COCCNC(=O)/C(C#N)=C/c1ccc(-c2ccc(S(=O)(=O)N3CCOCC3)cc2)o1 | inactive
21 | O=C(C1=C[C@H](c2ccccc2)C[C@H](OCc2ccc(CO)cc2)O1)N1CCOCC1 | inactive
22 | CC1CCN(CCNC(=O)CN(C)S(=O)(=O)c2cccc3nsnc23)CC1 | inconclusive [inhibitor, partial curve]
23 | Cc1cc(C)c2nc(N(CCN(C)C)C(=O)/C=C/c3cccs3)sc2c1 | inconclusive [inhibitor, partial curve]

Row | SMILES | Potency
24 | c1ccc(-c2cnc(-c3cccnc3)o2)cc1 | inactive
25 | O=C(NCCc1c[nH]c2ccccc12)C1CCN(Cc2ccc(Br)cc2)CC1 | inconclusive [inhibitor, single point]
26 | COc1cc(-c2noc(C3CCCN(S(=O)(=O)c4cccc(Cl)c4)C3)n2)cc(OC)c1OC (stereo not given) | active: 13.1 µM
27 | CC(=O)Nc1nc(-c2ccc3c(c2)CCN3S(C)(=O)=O)cs1 | inactive
28 | CCc1ccc(N/C(SCc2ccccc2C)=C(/C#N)C(=O)NCc2ccco2)cc1 | active: 13.1 µM
29 | CCOC(=O)N1CCC(NC(=O)c2cnn3ccccc23)CC1 | inactive
30 | CCc1ccc(C2C(C#N)=C(N)SC(N)=C2C#N)s1 | inconclusive [inhibitor, partial curve, poor fit]
31 | O=C(CCC(=O)Nc1ccc(F)cc1)N/N=C/c1cccc(Br)c1 | inactive
32 | CC1CCCC(C)N1CCCNC(=O)c1cc2c(s1)-c1ccccc1OC2 (stereo not given) | inconclusive [inhibitor, single point]
33 | C[C@H]1CC[C@H]2C(=O)N3[C@H](c4cccc(N5CCCC5=O)c4)[C@@H](C)CC[C@H]3C(=O)N2[C@@H]1c1cccc(N2CCCC2=O)c1 | inconclusive [inhibitor, partial curve, poor fit]
34 | COc1ccc(C(=O)NCCOc2cccc(Oc3ccccc3)c2)cc1OC | inconclusive [inhibitor, partial curve]
35 | O=C(CCCN1C(=O)c2cccc3cccc(c23)C1=O)NCc1cccs1 | inactive
36 | COc1cccc(O)c1CN1CCCC(C(=O)c2sccc2C)C1 (stereo not given) | inconclusive [inhibitor, partial curve, poor fit]
37 | COc1ccc(/C=C2/SC(=S)N(CCC(=O)N3CCN(C)CC3)C2=O)cc1 | inconclusive [inhibitor, partial curve]
38 | CNS(=O)(=O)c1cnccc1N1CCN(c2cccc(Cl)c2)CC1 | inconclusive [inhibitor, single point]
39 | COC(=O)c1ccccc1S(=O)(=O)N(Cc1cc2cc3c(cc2[nH]c1=O)OCO3)C1CCCCC1 | active: 8.28 µM
40 | O=C(O)CC(NC(=O)C1c2ccccc2Oc2ccccc21)c1ccc(Cl)cc1 (stereo not given) | inactive
41 | CC1(C)Cc2c(sc3nc(SCC(=O)NCc4ccccc4)n(-c4ccccc4)c(=O)c23)CS1 | inconclusive [inhibitor, single point]
42 | COC(=O)c1ccc(Nc2nc(C)nc3c2nnn3Cc2ccccc2)cc1 | inactive
43 | CC1=C(C(=O)Nc2cccc([N+](=O)[O-])c2)C2(CCC(C)CC2)OC1=O (stereo not given) | inconclusive [inhibitor, single point]
44 | O=C(CNc1ccccc1Cl)Nc1cc(S(=O)(=O)N2CCOCC2)ccc1Cl | inconclusive [inhibitor, single point]
45 | COc1ccc(-c2c(C(C)=O)c(C)nc3sc4c(=O)n(-c5ccc(C)cc5)nnc4c23)cc1 | inconclusive [inhibitor, partial curve, poor fit]
